Test results reported in PMC4336329 (PLoS ONE, 2015).
Screen size: about 310,000 compounds; about 14,000 (4.5%) showed an effect of 50% or more. The effect is printed as a negative number. The list shows a part of the results.

These molecules were tested against human ether-à-go-go-related gene (hERG) potassium channel (human, UniProt Q12809) (assay: primary screen, population patch clamp on CHO cells stably expressing hERG).
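Also: peak tail current of the secondary pulse compared with the same well before compound.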

Chain of human ether-à-go-go-related gene (hERG) potassium channel (Q12809 whole entry, looked up): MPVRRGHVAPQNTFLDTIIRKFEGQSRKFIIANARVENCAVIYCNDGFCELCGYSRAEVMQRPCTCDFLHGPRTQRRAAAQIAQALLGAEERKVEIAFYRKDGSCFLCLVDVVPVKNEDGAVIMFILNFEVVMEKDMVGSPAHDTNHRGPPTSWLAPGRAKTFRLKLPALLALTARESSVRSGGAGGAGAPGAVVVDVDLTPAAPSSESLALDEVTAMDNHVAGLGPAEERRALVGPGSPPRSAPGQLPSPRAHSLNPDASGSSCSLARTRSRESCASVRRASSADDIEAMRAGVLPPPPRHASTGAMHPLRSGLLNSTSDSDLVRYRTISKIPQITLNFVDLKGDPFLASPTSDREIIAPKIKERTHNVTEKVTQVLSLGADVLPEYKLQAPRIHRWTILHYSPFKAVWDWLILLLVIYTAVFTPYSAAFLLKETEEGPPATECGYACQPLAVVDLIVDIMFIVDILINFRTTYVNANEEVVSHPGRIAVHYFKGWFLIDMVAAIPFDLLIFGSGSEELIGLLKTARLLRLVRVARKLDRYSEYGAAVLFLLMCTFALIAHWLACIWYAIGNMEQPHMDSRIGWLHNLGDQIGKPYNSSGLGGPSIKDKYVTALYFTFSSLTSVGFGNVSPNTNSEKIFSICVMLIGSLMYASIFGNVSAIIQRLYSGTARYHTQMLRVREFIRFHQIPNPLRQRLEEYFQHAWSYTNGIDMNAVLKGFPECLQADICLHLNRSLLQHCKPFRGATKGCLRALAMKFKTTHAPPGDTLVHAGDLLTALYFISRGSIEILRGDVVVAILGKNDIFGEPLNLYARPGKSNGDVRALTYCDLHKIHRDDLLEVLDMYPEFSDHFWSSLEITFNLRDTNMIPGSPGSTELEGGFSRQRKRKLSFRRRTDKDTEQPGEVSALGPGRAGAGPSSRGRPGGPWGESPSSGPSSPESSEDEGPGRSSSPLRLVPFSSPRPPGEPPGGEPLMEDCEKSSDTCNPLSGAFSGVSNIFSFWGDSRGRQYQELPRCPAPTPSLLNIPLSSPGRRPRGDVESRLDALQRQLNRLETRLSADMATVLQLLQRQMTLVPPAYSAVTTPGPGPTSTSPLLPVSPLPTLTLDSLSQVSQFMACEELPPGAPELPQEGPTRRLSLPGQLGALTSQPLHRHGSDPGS

Row | Compound | hERG current change (%, negative = inhibition) at 10uM [%]
1 | O=C(Oc1ccc[nH]c1=O)c1cccc(Cl)c1 | 10.3
2 | Cc1nnc(NC(=O)c2ccc(S(=O)(=O)N3CC(C)OC(C)C3)cc2)o1 (stereo not drawn) | 12.6
3 | O=C(N1CCOCC1)C1(S(=O)(=O)c2ccccc2)CC=CC1 | 9.58
4 | Cc1ccc(S(=O)(=O)N2CCN(C(=O)Cn3nc(C)c([N+](=O)[O-])c3C)CC2)cc1 | -13.7
5 | C=CCNC(=O)N1CCCC(N2CCN(c3ccccc3OC)CC2)C1 (stereo not drawn) | -1.16
6 | Cc1cc(C)c(Nc2cc(S(=O)(=O)[O-])c(N)c3c2C(=O)c2ccccc2C3=O)c(C)c1.[Na+] | 12
7 | Cc1ccc(S(=O)(=O)N2CCC(C(=O)OCC(=O)N(CC(C)C)C3CCS(=O)(=O)C3)CC2)cc1C (stereo not drawn) | 4.81
8 | COc1ccccc1CC(=O)NCc1nn(-c2ccccc2)nc1C | 9.76
9 | COc1cc(NC(=O)c2cc([N+](=O)[O-])ccc2NC(=O)CNC2CCCCC2)cc(OC)c1 | 5.17
10 | Cc1cc2ccccc2nc1Br | 7.56
11 | OCCC1CN(Cc2cccs2)CCN1Cc1ccccc1 (stereo not drawn) | -20.9
12 | O=C(NCc1cccs1)C1CCN(c2nccs2)CC1 | -16.5
13 | CCOC(=O)c1cnc(-c2ccccc2)nc1Oc1ccccc1 | 7.83
14 | CC(C)Cc1nnc(NC(=O)C2CC(=O)N(c3ccc4c(c3)OCCO4)C2)s1 (stereo not drawn) | -22.5
15 | CN(Cc1ccccc1)c1oc(COc2ccccc2F)nc1C#N | -32.7
16 | O=C(c1noc2c1CCCC2)N1CCc2c([nH]c3ccccc23)C1c1ccccn1 (stereo not drawn) | -7.65
17 | O=C(CN1C(=O)C2C3C=CC(C3)C2C1=O)OCC(=O)c1ccc(Cl)c([N+](=O)[O-])c1 (stereo not drawn) | 15.7
18 | CCC(=O)Nc1ccc(/C=C(\C(C)=O)C(=O)c2ccccc2)cc1 | 12
19 | CNS(=O)(=O)c1cccc(C(=O)OCC(=O)Nc2ccc(OC)cc2[N+](=O)[O-])c1 | 14.3
20 | C/C(CC(=O)NC1CCCC1)=N\NC(=O)Cc1cccs1 | -3.71
21 | CC(Cc1cccs1)NC(=O)Nc1cccc(Cl)c1 (stereo not drawn) | 0.919
22 | Cc1ccc2cccc(OCc3cccc([N+](=O)[O-])c3)c2n1 | -4.71
23 | CCCn1c(CN2CCCCC2C)nc2c1c(=O)n(C)c(=O)n2C (stereo not drawn) | 3.04

Row | Compound | hERG current change (%, negative = inhibition) at 10uM [%]
24 | O=c1[nH]c2ccc(NS(=O)(=O)c3ccc([N+](=O)[O-])cc3)cc2[nH]1 | 32
25 | COc1cccc(N2CC(NS(=O)(=O)c3cccs3)CC2=O)c1 (stereo not drawn) | 4.83
26 | COC(=O)COc1ccc(Oc2nc(SC)nc(N(C)C)n2)nn1 | -26.8
27 | CCS(=O)(=O)Nc1ccc(-c2nnc(SCC(=O)OC)o2)cc1 | -6.99
28 | COc1ccc(-c2noc(CSc3nnc(-c4ccncc4)n3-c3ccc(F)cc3)n2)cc1OC | 0.121
29 | CC(NC(=O)C1CC12CCC2)c1ccccc1 (stereo not drawn) | 11.8
30 | Cc1ccccc1-c1nnc(Cc2ccccc2)o1 | -17.9
31 | O=C(NCCNc1ccc([N+](=O)[O-])cc1)c1ccccc1Br | -43.3
32 | CC(O)[C@H]1CNCCN1CC1(c2ccccc2)CC1 (stereo partly drawn) | 5.46
33 | O=S(=O)(NCC(c1cccnc1)N1CCOCC1)c1ccc(Cl)cc1 (stereo not drawn) | 4.89
34 | COCCN(C(=O)C1CC1)c1nnc(-c2cccc(C)c2)s1 | -6.82
35 | C=CCn1c(SCC(=O)NC(=O)c2cccc([N+](=O)[O-])c2)nnc1-c1ccccc1 | -10.9
36 | CN(C)CCn1c(C(=O)Nc2ccccc2)cc2ccccc21.Cl | -58.9
37 | CCC(C(=O)Nc1ccc(OC)c(Cl)c1)c1ccccc1 (stereo not drawn) | -2.24
38 | O=C(CN1C(=O)NC(Cc2ccccc2)C1=O)Nc1ccc(OC(F)(F)F)cc1 (stereo not drawn) | -13.9
39 | Cc1cc(C)nc(OC(=O)c2c(Cl)cc(Cl)cc2Cl)n1 | 9.64
40 | C=CCN(CC=C)C(=O)c1ccccc1NC(=O)c1ccccc1C | 13.3
41 | CCc1ccc(CNC(=O)CC2C(=O)NCCN2Cc2ccccc2F)nc1 (stereo not drawn) | 1.14
42 | O=S1(=O)CCO[C@H]2Cc3ccccc3[C@H]2N1Cc1ccccc1Br | -5.31
43 | Cc1ccc(CN2CCN(C3CSCCSC3)CC2CCO)cc1 (stereo not drawn) | -41.9
44 | Cc1ccc2c(c1)C(=O)CC1(CCC(C(C)(C)C)CC1)O2 (stereo not drawn) | 22.7
45 | Cc1cc(=O)c2c([nH]1)c(C)cc1[nH]c(C)c(C)c12 | 3.42
